About 2,200 (0.71%) of roughly 310,000 compounds showed an effect of 50% or more. The effect is printed as a negative number. The list shows a part of the results.
These molecules were tested against human ether-à-go-go-related gene (hERG) potassium channel (human, UniProt Q12809) (assay: primary screen, population patch clamp on CHO cells stably expressing hERG).
human ether-à-go-go-related gene (hERG) potassium channel, sequence (Q12809 whole entry, looked up): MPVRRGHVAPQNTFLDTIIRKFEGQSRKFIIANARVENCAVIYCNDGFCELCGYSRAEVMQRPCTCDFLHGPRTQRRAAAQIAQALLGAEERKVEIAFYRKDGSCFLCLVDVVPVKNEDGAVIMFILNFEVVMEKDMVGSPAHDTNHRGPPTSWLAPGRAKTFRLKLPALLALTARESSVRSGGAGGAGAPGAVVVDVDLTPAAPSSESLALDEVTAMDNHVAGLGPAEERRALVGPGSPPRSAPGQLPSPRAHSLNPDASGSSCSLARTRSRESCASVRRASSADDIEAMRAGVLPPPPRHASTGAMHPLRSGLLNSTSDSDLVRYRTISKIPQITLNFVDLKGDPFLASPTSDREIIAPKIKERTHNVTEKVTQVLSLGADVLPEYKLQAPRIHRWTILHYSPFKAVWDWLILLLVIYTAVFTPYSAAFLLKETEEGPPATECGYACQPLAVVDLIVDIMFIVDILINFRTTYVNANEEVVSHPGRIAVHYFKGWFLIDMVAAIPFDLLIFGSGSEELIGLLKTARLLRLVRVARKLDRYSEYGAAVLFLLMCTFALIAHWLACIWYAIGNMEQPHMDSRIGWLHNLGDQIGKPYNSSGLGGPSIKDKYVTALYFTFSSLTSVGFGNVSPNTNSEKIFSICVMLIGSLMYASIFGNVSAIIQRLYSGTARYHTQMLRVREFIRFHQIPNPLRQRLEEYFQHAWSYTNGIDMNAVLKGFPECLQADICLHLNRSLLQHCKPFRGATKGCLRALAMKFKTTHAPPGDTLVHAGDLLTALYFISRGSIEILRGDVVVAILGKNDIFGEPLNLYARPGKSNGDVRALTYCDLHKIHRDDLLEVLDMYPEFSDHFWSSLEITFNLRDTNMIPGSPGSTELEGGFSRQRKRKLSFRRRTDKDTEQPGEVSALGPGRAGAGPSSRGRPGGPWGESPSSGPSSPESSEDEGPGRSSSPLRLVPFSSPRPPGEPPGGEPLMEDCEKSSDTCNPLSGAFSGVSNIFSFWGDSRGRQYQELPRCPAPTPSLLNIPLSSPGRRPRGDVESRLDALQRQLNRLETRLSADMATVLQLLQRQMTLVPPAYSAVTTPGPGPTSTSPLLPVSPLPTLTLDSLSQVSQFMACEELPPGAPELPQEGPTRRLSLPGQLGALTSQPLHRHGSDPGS

Structure (SMILES)	hERG current change (%, negative = inhibition) at 1uM [%]
Cc1ccc(/C=N/NC(=O)CSc2nc3ccccc3n2Cc2ccccc2)o1	-0.68
Cc1ccccc1OCC(=O)NCCC(=O)O	13.1
COc1cc(/C=C/C(=O)NCc2ccccn2)cc(OC)c1OC	10.5
O=C1CC(=O)N(c2ccccc2F)C(=O)N1	11.3
CC(C)Oc1ccc(NC(=O)C2CCCNC2=O)cc1 (centres unmarked)	13.7
O=C(Nc1ccc(C(=O)O)cc1)/C(=C\c1ccc2c(c1)OCO2)NC(=O)c1ccc(Br)cc1	15.8
C/C(CCc1ccc2c(c1)OCO2)=N\N=C(/N)SC1CC(=O)N(c2ccccc2F)C1=O (centres unmarked)	7.78
C/C=C/C(=O)OCC(=O)Nc1c(Cl)cccc1Cl	1.7
Cc1nn(Cc2ccccc2)c(Cl)c1C(=O)OCC(=O)N1CCCC1	11.9
CC1(C(=O)NC2CCCC2)CCC(=O)N1Cc1ccc2c(c1)OCO2 (centres unmarked)	-0.531
CC(C)OCCCN1CN(S(=O)(=O)c2cccs2)c2nc3ccccc3nc21	5.35
CC(Nn1cnnc1)c1cc(Cl)ccc1O (centres unmarked)	14.8
C=CCn1c(=O)c2ccccc2n2c(SCC(=O)NCCc3ccccc3)nnc12	3.36
CCN(CC)c1nc(Oc2ccc(C(=O)NN)cc2)nc(Oc2ccc(C(=O)NN)cc2)n1	10.7
COc1ccc2[nH]c(=O)c(CN(C(C)=O)c3cccc(C)c3)cc2c1	4.04
CCN(CC)S(=O)(=O)c1cccc(NC2=NCC(C)S2)c1 (centres unmarked)	4.03
CCNc1nc(NCC)nc(-n2nc(C)cc2C)n1	11.5
CCOc1ccc(S(=O)(=O)Nc2ccc(S(=O)(=O)N3CCCC3)cc2)cc1	5.59
O=C1CC(CSc2ccc(Cl)cc2)=NN1	7.8
CCC(C)/C(C)=N/NC(=O)c1ccccc1OCCOc1ccccc1 (centres unmarked)	0.255
COc1ccc(CCNC2=C(Cl)C(=O)N(CCc3ccccc3)C2=O)cc1OC	11.4
O=C(c1ccccc1)c1cccn1CC(=O)N1CCc2ccccc2C1	2.97
Cc1ccc(S(=O)(=O)N2CCN(c3ncnc4c3cnn4-c3ccccc3)CC2)cc1	13.2
CC(=O)Nc1nonc1-c1nc2ccccc2n1Cc1ccccc1	12
O=C(CCCCCN1C(=O)c2ccccc2C1=O)NC1CCCC1	13.5
O=C(Cn1nnc(-c2ccc(S(=O)(=O)N3CCCC3)cc2)n1)Nc1ccccc1-n1cccc1	2.03

Reference: paper PMC4336329 (PLoS ONE, 2015)
